The record followed here is the supplement of paper PMC6206098.

± gives the uncertainty stated by the source. The sequences are guide strands of siRNAs; only the seed at positions 2 to 7 varies.

One data set has as its system HeyA8. Put plainly: cell viability relative to lipid-only control; higher = less toxic. The following applies: concentration: 10 nM; 96 h; Homo sapiens. The protocol:
(§1)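 Arrayed screen of 4096 siRNA duplexes, each carrying one of all possible 6mer seeds at guide-strand positions 2-7 in a fixed neutral 19mer scaffold (constant flanks: U at position 1, then ACAUGUAAACCA, plus a 3' AA overhang). The passenger strand is 2'-O-methylated at positions 1-2 so only the guide strand loads into RISC. Duplexes were reverse-transfected at 10 nM with RNAiMAX in triplicate in 384-well plates; viability was read by CellTiter-Glo ATP content 96 h after transfection. Values are % viability normalised to lipid-only wells (HeyA8, H460, M565) or to siNT1 (3LL).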

The test system of the next data set is H460. The data set is described as above. The following applies: concentration: 10 nM; 96 h; Homo sapiens. The method, then:
as §1

Another data set concerns M565. The data set is described as above. The following applies: concentration: 10 nM; 96 h; Mus musculus. The method, then: as §1
A further data set concerns 3LL. Put plainly: cell viability relative to siNT1 control; HeyA8 human ovarian and H460 human lung cancer; M565 mouse liver and 3LL mouse lung cancer; siNT1 is a non-toxic control siRNA; higher = less toxic. The following applies: concentration: 10 nM; 96 h; Mus musculus. The method, then: as §1
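Wherever cell viability relative to lipid-only control is given: reverse lipid transfection in 384-well plates, in triplicate, of duplexes on a non-toxic 19mer backbone with passenger strand 2′-O-methylated at positions 1 and 2, luminescence viability read-out.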
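Wherever cell viability relative to siNT1 control is given: Luminescence-based viability of cells reverse transfected in 384-well plates with lipid-complexed siRNAs built on a non-toxic 19mer backbone whose passenger strand carries 2′-O-methyl groups at positions 1 and 2, triplicates.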

Take UGUCACGACAUGUAAACCAAA: the cell viability worked out at 109 ± 16% with HeyA8, 22.3 ± 2.4% with H460, 51 ± 6.8% in the data set on M565 and 87.2 ± 15% in the data set with 3LL.
On the same counts, the results for UCGCUCCACAUGUAAACCAAA are 20 ± 2.5%, 10.5 ± 2.1%, 41.9 ± 0.92% and 28.3 ± 3.5%.
In the same order, the values of UAUGCGUACAUGUAAACCAAA are 98.4 ± 5.7%, 83.7 ± 7.6%, 116 ± 6% and 81.3 ± 14%.
In the same order, the values of UACCCGUACAUGUAAACCAAA are 73.7 ± 7.7%, 59.2 ± 5.3%, 39.3 ± 6.2% and 54 ± 8.1%.
As to UGUUGAAACAUGUAAACCAAA, the cell viability with HeyA8 worked out at 89 ± 12%; with H460, 68.5 ± 8.2%; in the data set with M565, 40.4 ± 1.2%; in the data set on 3LL it was 102 ± 7.1%.
Regarding UUUGCUAACAUGUAAACCAAA, the cell viability in the data set with HeyA8 is 94.6 ± 1.4%; in the data set on H460, 84.2 ± 3.8%; with M565, 118 ± 5.4%; in the data set with 3LL, 101 ± 13%.
On the same counts, the results for UUCCCAUACAUGUAAACCAAA are 88 ± 2%, 83.4 ± 12%, 75.4 ± 14% and 70.7 ± 8.7%.
In the same order, the values of UGUGUUAACAUGUAAACCAAA are 69.1 ± 10%, 56.2 ± 8.4%, 52.8 ± 11% and 78.9 ± 3.8%.
In the same order, the values of UGCCUUAACAUGUAAACCAAA are 54.9 ± 4%, 62.6 ± 4.5%, 42.9 ± 11% and 94 ± 21%.
Consider UCUCCACACAUGUAAACCAAA, for which the cell viability in the data set on HeyA8 was 71.7 ± 4.7%; in the data set on H460, 63.7 ± 10%; with M565, 53.1 ± 16%; in the data set with 3LL, 89.7 ± 13%.
In the case of UUUUUUGACAUGUAAACCAAA, the cell viability came to 97.8 ± 10% in the data set with HeyA8, 62.3 ± 8% in the data set with H460, 98 ± 20% in the data set with M565 and 90.5 ± 4.5% with 3LL.
In the same order, the values of UCCAAAAACAUGUAAACCAAA are 86.6 ± 11%, 76.5 ± 4.7%, 82.9 ± 14% and 108 ± 27%.
Take UCCCAGGACAUGUAAACCAAA: the cell viability amounted to 82.1 ± 3.3% in the data set with HeyA8, 54.5 ± 3.3% in the data set on H460, 26.7 ± 3.8% in the data set with M565 and 89.3 ± 21% in the data set with 3LL.
On the same counts, the results for UACACCUACAUGUAAACCAAA are 6.22 ± 0.49%, 26 ± 1.8%, 27.9 ± 6.1% and 63.4 ± 5%.
In the same order, the values of UCACCGGACAUGUAAACCAAA are 65.2 ± 1.9%, 40.2 ± 1.6%, 66.6 ± 14% and 85.9 ± 17%.
On the same counts, the results for UGCGAAAACAUGUAAACCAAA are 86.5 ± 7.6%, 90.5 ± 2.6%, 81.5 ± 2.3% and 89.8 ± 7.8%.
As to UGUUAAAACAUGUAAACCAAA, the cell viability with HeyA8 stood at 85.1 ± 13%; with H460, 61.9 ± 3.5%; with M565 it was 63 ± 8.1%; in the data set with 3LL it was 95.5 ± 4%.
In the same order, the values of UUCGGCAACAUGUAAACCAAA are 77.5 ± 11%, 81.6 ± 4.6%, 84.1 ± 6.9% and 99.1 ± 18%.
In the same order, the values of UUGGAGGACAUGUAAACCAAA are 28 ± 4.2%, 18.7 ± 4.9%, 14 ± 5.1% and 38.1 ± 7.2%.
In the same order, the values of UACGAAAACAUGUAAACCAAA are 94.6 ± 10%, 101 ± 6.3%, 84.5 ± 7.6% and 85.2 ± 8.8%.
In the case of UCCCUCAACAUGUAAACCAAA, the cell viability in the data set on HeyA8 worked out at 85.4 ± 13%; in the data set on H460, 55.8 ± 12%; in the data set with M565, 76.1 ± 15%; with 3LL, 103 ± 36%.
In the same order, the values of UUCAUAAACAUGUAAACCAAA are 107 ± 18%, 51.6 ± 6.7%, 96.7 ± 14% and 95.4 ± 6.2%.
On to UCCUUUAACAUGUAAACCAAA, for which the cell viability is 80 ± 3.6% in the data set on HeyA8, 96.9 ± 4.5% in the data set with H460, 94.7 ± 12% in the data set with M565 and 97.6 ± 21% with 3LL.
Turning to UCAAAUCACAUGUAAACCAAA, the cell viability came out at 66.4 ± 3.5% with HeyA8, 49.4 ± 4.9% in the data set on H460, 41.8 ± 6.7% with M565 and 72 ± 11% in the data set on 3LL.
In the same order, the values of UCCCGUCACAUGUAAACCAAA are 20.4 ± 4.4%, 46 ± 7.6%, 20 ± 2.6% and 65.3 ± 11%.
In the same order, the values of UUGCACCACAUGUAAACCAAA are 41.9 ± 5.8%, 29 ± 3.2%, 44.9 ± 15% and 14.6 ± 2.4%.
In the same order, the values of UUUCGCUACAUGUAAACCAAA are 95.3 ± 1.5%, 80.5 ± 16%, 72.5 ± 8.6% and 93.9 ± 10%.
Regarding UGGUUGCACAUGUAAACCAAA, the cell viability in the data set on HeyA8 was found to be 18.1 ± 2.3%; in the data set on H460, 15.4 ± 0.98%; in the data set on M565, 67.2 ± 1.2%; in the data set with 3LL it was 50.8 ± 5.6%.
